Laboratory results: the supplement of paper PMC12217912
Some of the results follow. The full chains were built here from the parent and the listed change. Values near 0.05 are background.

B1: TEV protease; numbered along this chain (parent)
chain: MGESLFKGPRDYNPISSSICHLTNESDGHTTSLYGIGFGPFIITNKHLFRRNNGTLVVQSLHGVFKVKDTTTLQQHLVDGRDMIIIRMPKDFPPFPQKLKFREPQREERICLVTTNFQTKSMSSMVSDTSCTFPSGDGIFWKHWIQTKDGQCGSPLVSTRDGFIVGIHSASNFTNTNNYFTSVPKNFMELLTNQEAQQWVSGWRLNADSVLWGGHKVFMVKPEEPFQPVKEATQL

Variants of: B1
Experiment: raw area under fraction-flipped curve 0-4 h after induction (AUC4h, not background-subtracted), DNA-recorder readout of cleavage of the substrate (dimensionless); higher = more cleavage of the substrate by the protease variant
Settings: temperature: 34 °C; time window: 0-4 h after rhamnose induction
Method: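 In vivo DNA recorder in E. coli TOP10(DE3) ΔrhaA at 34 °C. Each TEVp single-site mutant (parent TEVp 0) is paired with a single-site variant of the 7-mer TEVs (canonical ENLYFQ|S). The substrate sits between flexible linkers in a Bxb1-sfGFP-TEVs-SsrA fusion, so cleavage stabilises Bxb1 and speeds flipping of a recombination array, read by NGS. The value is the raw area under the fraction-flipped curve over 0-4 h after rhamnose induction (AUC4h), with ≥20 reads per time point. It is not background-subtracted; inactive controls average about 0.047.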
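Note: Bxb1 expression induced with 0.2% (w/v) L-rhamnose at OD600 near 0.5, cultures sampled hourly, flipped fraction per protease–substrate barcode pair counted by paired-end Illumina sequencing.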

| Variant | area with substrate ENAYFQS | area with substrate ENCYFQS | area with substrate ENDYFQS | area with substrate ENEYFQS | area with substrate ENGYFQS | area with substrate ENHYFQS | area with substrate ENKYFQS | area with substrate ENMYFQS | area with substrate ENNYFQS | area with substrate ENPYFQS | area with substrate ENQYFQS | area with substrate ENRYFQS | area with substrate ENSYFQS | area with substrate ENTYFQS | area with substrate ENVYFQS | area with substrate ENWYFQS | area with substrate ENFYFQS | area with substrate ENIYFQS | area with substrate ENYYFQS |
| --- | --- | --- | --- | --- | --- | --- | --- | --- | --- | --- | --- | --- | --- | --- | --- | --- | --- | --- | --- |
| K142G | 0.063 | 0.0495 | 0.0637 | 0.0675 | 0.0563 | 0.0517 | 0.0546 | 0.0623 | 0.056 | 0.0597 | 0.0647 | 0.0626 | 0.0575 | 0.0599 | 0.0804 | 0.0957 |  |  |  |
| R106D | 0.0464 | 0.0921 | 0.0609 | 0.0579 | 0.0505 | 0.0703 |  | 0.0711 | 0.0652 | 0.0498 | 0.054 | 0.046 | 0.0568 | 0.0634 | 0.0672 | 0.0445 | 0.0638 | 0.108 | 0.0676 |
| K120H | 0.0435 | 0.0528 | 0.0448 | 0.0662 |  | 0.0577 |  |  | 0.0642 |  | 0.0496 | 0.0419 | 0.0463 | 0.082 |  |  | 0.0415 | 0.0147 |  |
| K120W | 0.0661 | 0.0766 | 0.0557 | 0.0824 | 0.0556 | 0.0586 |  | 0.0738 | 0.051 |  | 0.0558 | 0.0735 | 0.061 | 0.0587 |  | 0.0426 |  |  | 0.0681 |
| K120Y | 0.0493 | 0.0665 | 0.0574 |  | 0.0589 |  | 0.0372 |  | 0.0711 | 0.0508 | 0.0501 | 0.0574 | 0.0499 | 0.051 | 0.0614 | 0.0088 | 0.0548 | 0.0939 |  |
| K120P | 0.0591 |  | 0.0527 |  | 0.0604 | 0.008 | 0.0517 |  |  | 0.0454 | 0.0514 |  | 0.0527 | 0.0554 | 0.0752 |  |  | 0.106 |  |
| K120G | 0.0804 | 0.0683 |  | 0.0699 | 0.061 |  |  | 0.0854 | 0.07 |  | 0.0519 | 0.0513 | 0.0552 |  |  |  | 0.0609 | 0.101 | 0.0698 |
| K120F | 0.052 | 0.0651 | 0.061 | 0.065 | 0.0695 |  | 0.0605 |  |  | 0.0539 | 0.0668 |  | 0.0598 | 0.063 |  | 0.0614 | 0.0688 | 0.0963 | 0.0705 |
| L112F | 0.0742 | 0.0603 | 0.0603 | 0.0686 | 0.0569 |  |  | 0.0638 |  | 0.0597 | 0.0575 | 0.0638 | 0.0666 | 0.0528 | 0.0752 | 0.0512 | 0.0694 |  | 0.0586 |
| L112I | 0.0723 | 0.0578 | 0.0608 | 0.0529 | 0.0483 | 0.0593 | 0.0701 | 0.0635 | 0.0586 | 0.0578 | 0.0698 | 0.0816 | 0.0754 |  | 0.0658 |  | 0.0617 | 0.104 | 0.0487 |
| L112W | 0.058 | 0.0604 | 0.0604 | 0.0593 |  | 0.025 | 0.0469 | 0.0619 | 0.0685 | 0.0462 | 0.0596 | 0.0592 | 0.0583 |  | 0.0684 |  | 0.0566 | 0.068 | 0.0512 |
| L112N | 0.0524 | 0.0629 | 0.057 | 0.063 | 0.061 |  | 0.066 | 0.0622 | 0.0637 | 0.0517 | 0.0588 | 0.0593 | 0.0639 | 0.0665 |  | 0.0078 | 0.0671 | 0.0903 | 0.0544 |
| L112H | 0.0584 | 0.0654 | 0.0662 | 0.0649 | 0.0764 |  |  |  |  |  | 0.062 | 0.0636 | 0.0644 | 0.0764 | 0.0679 |  | 0.0671 | 0.0552 | 0.0556 |
| L112Q | 0.0614 |  | 0.0671 | 0.0581 | 0.057 | 0.0642 |  |  |  | 0.057 | 0.0623 | 0.0483 | 0.0618 |  | 0.0653 |  | 0.0577 | 0.0827 |  |
| L112S | 0.0509 | 0.0452 | 0.0668 |  |  |  | 0.0818 | 0.0634 | 0.0681 | 0.0692 | 0.0603 | 0.0701 | 0.0802 |  |  | 0.0479 |  | 0.0599 | 0.0723 |
| P134H | 0.0623 |  | 0.0542 | 0.0664 | 0.0542 | 0.0667 | 0.0626 | 0.0658 | 0.0595 | 0.0472 | 0.055 | 0.0381 | 0.0531 | 0.0491 | 0.0699 |  | 0.0605 | 0.0825 |  |
| E103G | 0.0505 | 0.0614 | 0.043 | 0.0577 | 0.0607 | 0.0536 | 0.0532 |  | 0.0583 | 0.0644 | 0.0612 |  | 0.0648 |  | 0.0694 |  | 0.0636 | 0.0884 | 0.0748 |
| F140R | 0.0606 | 0.0606 | 0.0681 | 0.0543 | 0.0534 | 0.0586 |  |  | 0.0668 | 0.0695 | 0.0638 | 0.0556 | 0.0678 | 0.0622 | 0.0649 |  | 0.0592 | 0.0701 | 0.0688 |
| Q105F | 0.0482 |  | 0.0693 |  | 0.0664 | 0.0772 |  | 0.0847 |  | 0.0465 | 0.055 | 0.0584 | 0.0393 | 0.0494 | 0.0806 |  | 0.0591 | 0.093 | 0.0531 |
| Q105W | 0.0525 | 0.0602 | 0.0599 | 0.0584 | 0.0679 |  | 0.0639 |  | 0.0739 | 0.0526 | 0.0802 | 0.0536 | 0.0746 | 0.06 | 0.0767 |  | 0.0619 | 0.0992 |  |
| W144M | 0.0634 |  | 0.0595 | 0.0717 |  |  | 0.074 |  | 0.0831 |  | 0.0579 | 0.0503 | 0.0531 |  | 0.0559 | 0.0656 | 0.0695 | 0.0945 |  |
| W144H | 0.055 | 0.0705 | 0.064 |  | 0.0586 |  |  |  | 0.0648 | 0.0578 | 0.0576 |  | 0.0781 | 0.0572 | 0.0853 |  | 0.0854 | 0.104 | 0.0681 |
| W144C | 0.0538 |  | 0.0866 | 0.0649 | 0.0773 | 0.0561 | 0.0594 |  | 0.0664 | 0.0604 | 0.0634 | 0.0524 | 0.081 |  | 0.0817 |  | 0.0392 | 0.0863 |  |
| W144K | 0.0685 |  | 0.052 | 0.0537 | 0.0718 |  |  |  |  | 0.0649 |  | 0.0895 | 0.0642 | 0.0638 |  | 0.0681 | 0.0651 | 0.0758 | 0.0688 |
